This is an account of results in PMC4336329 (PLoS ONE, 2015).

Structures are written as SMILES. Hit rate of the full screen: of about 310,000 compounds, about 2,200 (0.71%) showed an effect of 50% or more. Effects have a minus sign here. The list shows a part of the results.

Sequence of human ether-à-go-go-related gene (hERG) potassium channel (Q12809 whole entry, looked up): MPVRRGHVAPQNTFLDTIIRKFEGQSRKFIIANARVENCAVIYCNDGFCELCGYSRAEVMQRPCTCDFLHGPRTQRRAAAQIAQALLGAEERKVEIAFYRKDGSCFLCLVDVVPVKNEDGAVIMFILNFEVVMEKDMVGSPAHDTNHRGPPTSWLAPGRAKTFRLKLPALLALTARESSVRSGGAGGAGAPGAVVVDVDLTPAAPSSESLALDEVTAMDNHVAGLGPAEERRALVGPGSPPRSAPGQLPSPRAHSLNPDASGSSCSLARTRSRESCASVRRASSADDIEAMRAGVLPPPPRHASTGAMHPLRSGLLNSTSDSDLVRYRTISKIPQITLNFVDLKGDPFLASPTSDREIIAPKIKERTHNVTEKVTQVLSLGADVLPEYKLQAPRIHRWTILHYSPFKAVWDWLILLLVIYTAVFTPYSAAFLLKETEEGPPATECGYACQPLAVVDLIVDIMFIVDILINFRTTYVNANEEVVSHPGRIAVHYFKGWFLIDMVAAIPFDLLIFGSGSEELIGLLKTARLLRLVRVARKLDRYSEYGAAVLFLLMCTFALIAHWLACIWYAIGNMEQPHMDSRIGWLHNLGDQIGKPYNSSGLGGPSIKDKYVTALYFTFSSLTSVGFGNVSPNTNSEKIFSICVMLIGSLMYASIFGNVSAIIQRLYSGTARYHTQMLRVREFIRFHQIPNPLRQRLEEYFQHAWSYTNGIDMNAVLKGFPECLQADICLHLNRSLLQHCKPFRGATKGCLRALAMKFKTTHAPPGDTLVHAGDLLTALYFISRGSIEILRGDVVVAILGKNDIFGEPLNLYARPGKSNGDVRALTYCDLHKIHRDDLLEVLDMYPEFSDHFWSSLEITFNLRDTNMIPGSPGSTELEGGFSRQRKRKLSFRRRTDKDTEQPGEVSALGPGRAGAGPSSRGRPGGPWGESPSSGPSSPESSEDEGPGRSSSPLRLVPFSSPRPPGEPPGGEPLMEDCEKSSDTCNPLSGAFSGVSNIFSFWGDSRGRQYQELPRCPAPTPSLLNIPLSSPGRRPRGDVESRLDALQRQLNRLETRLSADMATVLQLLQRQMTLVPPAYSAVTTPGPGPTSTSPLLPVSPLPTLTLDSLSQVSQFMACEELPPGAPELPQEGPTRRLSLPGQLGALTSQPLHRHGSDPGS

This assay concerns the target human ether-à-go-go-related gene (hERG) potassium channel (human, UniProt Q12809). Description: primary screen, population patch clamp on CHO cells stably expressing hERG.
As for `NNC(=O)COc1ccc(C2SCCS2)cc1`, the “hERG current change (%, negative = inhibition) at 1uM” value was 1.08%.

On to `Cc1ccc(CSc2nnc(C)c(=O)[nH]2)cc1`, for which the “hERG current change (%, negative = inhibition) at 1uM” value stood at 17.3%.

Consider `CCOC(=O)Nc1ccc2c(c1)N(C(=O)N1CCN(C)CC1)c1ccccc1S2.Cl`, for which the “hERG current change (%, negative = inhibition) at 1uM” value is given as -3.77%.

Consider `O=C(Cn1cnc2c(nnn2Cc2ccccc2F)c1=O)NCC1CCCO1` (centres unmarked), for which the “hERG current change (%, negative = inhibition) at 1uM” value was found to be 1.99%.

With `CSc1nc(Oc2ccc(F)cc2)c2ccccc2n1`, the “hERG current change (%, negative = inhibition) at 1uM” value is 6.5%.

`O=C(c1ccc(S(=O)(=O)NCc2ccco2)cc1)N1CCN(Cc2ccccc2)CC1`: the “hERG current change (%, negative = inhibition) at 1uM” value is -2.48%.

For the compound `COc1ccc(OCc2cnc(Cl)s2)cc1`, the “hERG current change (%, negative = inhibition) at 1uM” value is listed as 13.8%.

As to `CC(=O)Nc1ccc(S(=O)(=O)/N=C2\C(=O)c3ccccc3C([O-])=C2n2cc[n+](-c3ccccn3)c2)cc1`, the “hERG current change (%, negative = inhibition) at 1uM” value came out at 6.58%.

For the compound `COc1ccc(S(=O)(=O)Nc2ccc(S(=O)(=O)Nc3ccc(F)cc3)cc2)cc1C`, the “hERG current change (%, negative = inhibition) at 1uM” value is given as -0.526%.

Regarding `OC(COc1ccccc1)Cn1c2ccccc2c2ccccc21` (centres unmarked), the “hERG current change (%, negative = inhibition) at 1uM” value came to 8.25%.

`Cc1ccc(N2C(=O)CC(Sc3ccccc3C(=O)O)C2=O)cc1C` (centres unmarked): the “hERG current change (%, negative = inhibition) at 1uM” value stood at 16.3%.

As for `COc1cccc(NC(=O)C2CCOC2=O)c1` (centres unmarked), the “hERG current change (%, negative = inhibition) at 1uM” value is on record as 18.5%.

For `O=C(NCc1cccs1)c1cc2ccccc2o1`, the “hERG current change (%, negative = inhibition) at 1uM” value is listed as 9.25%.

On to `CCCCn1c(N)c(N(Cc2ccccc2OC)C(=O)c2cc(CC)c(C)s2)c(=O)[nH]c1=O`, for which the “hERG current change (%, negative = inhibition) at 1uM” value came to 6.37%.

In the case of `COCCNC(=O)CSc1nnc(-c2ccc(C)cc2)c(-c2ccc(C)cc2)n1`, the “hERG current change (%, negative = inhibition) at 1uM” value came to 3.66%.

For the compound `CCOC(=O)N1CCC(NC(=O)C2CCN(C(=O)N3CC(C)Oc4ccc(C)cc43)CC2)CC1` (centres unmarked), the “hERG current change (%, negative = inhibition) at 1uM” value is listed as -7.89%.

As to `Cc1ccc(NC(=O)COC(=O)CCC(=O)c2cccs2)c(C)c1`, the “hERG current change (%, negative = inhibition) at 1uM” value worked out at 9.96%.

Take `COc1ccc(OC)c(C2/C(=C(\O)c3ccc4c(c3)OCCO4)C(=O)C(=O)N2CC2CCCO2)c1` (centres unmarked): the “hERG current change (%, negative = inhibition) at 1uM” value was 2.13%.

In the case of `COc1ccc(CCNC(=O)CN(c2ccc(OC)c(OC)c2)S(C)(=O)=O)cc1OC`, the “hERG current change (%, negative = inhibition) at 1uM” value is given as -3.95%.

With `COc1ccc(OCC(O)CNC(=O)c2sccc2Cl)cc1` (centres unmarked), the “hERG current change (%, negative = inhibition) at 1uM” value is reported as 0.0429%.

In the case of `CSC1=C(C#N)C2(CCCC2)C(C#N)=C(N)N1`, the “hERG current change (%, negative = inhibition) at 1uM” value came out at 5.05%.

For `O=C(O)CCCNC(=O)/C(=C\c1ccccc1F)NC(=O)c1ccccc1`, the “hERG current change (%, negative = inhibition) at 1uM” value was 13.5%.

Regarding `Cc1cc(C(=O)COc2cc(F)ccc2[N+](=O)[O-])c(C)n1C1CC1`, the “hERG current change (%, negative = inhibition) at 1uM” value was 3.77%.

Take `CC1CCC2(CC1)NC(=O)N(CC(=O)NC(C)c1ccc(F)c(F)c1)C2=O` (centres unmarked): the “hERG current change (%, negative = inhibition) at 1uM” value is -7.07%.

Take `COc1ccc(-c2csc(NC(=O)c3nc(-c4ccccc4)oc3C)n2)cc1`: the “hERG current change (%, negative = inhibition) at 1uM” value came out at 12.7%.

As to `O=C(c1ccc(Cl)c(S(=O)(=O)N2CCCCCC2)c1)N1CCCCC1`, the “hERG current change (%, negative = inhibition) at 1uM” value was found to be 11.2%.

With `O=C(NC(=S)Nc1ccc(S(=O)(=O)Nc2nccs2)cc1)c1ccc(Br)o1`, the “hERG current change (%, negative = inhibition) at 1uM” value amounted to 14.6%.

As for `COc1ccc2c(c1[N+](=O)[O-])CCC/C2=N/OC(=O)c1cccc2ccccc12`, the “hERG current change (%, negative = inhibition) at 1uM” value is reported as 13.3%.

Turning to `CN(C)CC(=O)Nc1ccc2cn[nH]c2c1`, the “hERG current change (%, negative = inhibition) at 1uM” value is 7.53%.

On to `CN(C)c1ncnc2sc(-c3ccccc3)cc12`, for which the “hERG current change (%, negative = inhibition) at 1uM” value turned out to be 10.6%.

For `CCOC(=O)c1cc2cc(OC)ccc2[nH]1`, the “hERG current change (%, negative = inhibition) at 1uM” value is reported as 1.1%.

As to `COc1ccc(C(=O)NC(=S)Nc2nc(C)c(C(=O)N(C)C)s2)cc1`, the “hERG current change (%, negative = inhibition) at 1uM” value was found to be 10.3%.

For `Cc1oc(-c2ccccc2Cl)nc1CSCC(=O)O`, the “hERG current change (%, negative = inhibition) at 1uM” value was 3.61%.

As to `CC(=O)C1=C(c2ccccc2)OC(N)=C(C#N)C1c1ccc(O)cc1` (centres unmarked), the “hERG current change (%, negative = inhibition) at 1uM” value is recorded as 4%.

Consider `Cc1cc(=O)[nH]c(SCC(=O)Nc2ccnc3ccccc23)n1`, for which the “hERG current change (%, negative = inhibition) at 1uM” value came out at 9.07%.

As for `CCCCN=CC1=C(O)C(C(=O)OC)C(C)(C)CC1=O` (centres unmarked), the “hERG current change (%, negative = inhibition) at 1uM” value was 17.4%.

`C=C1CCN([C@@H](C)C(=O)NCCCCCC)S(=O)(=O)c2ccccc21`: the “hERG current change (%, negative = inhibition) at 1uM” value was -13.6%.

Consider `Cc1cccc(C(=O)O/N=C/c2c(N3CCOCC3)n(C)c3ccccc23)c1`, for which the “hERG current change (%, negative = inhibition) at 1uM” value is listed as -11.3%.

With `C[C@@H]1NC(=O)N(CCCn2ccnc2)C1=O`, the “hERG current change (%, negative = inhibition) at 1uM” value came out at 8.11%.

Regarding `CCOC(=O)Cc1csc(NS(=O)(=O)Cc2ccccc2)n1`, the “hERG current change (%, negative = inhibition) at 1uM” value was 16%.

As for `O=C(CN(Cc1ccco1)C(=O)CCC(=O)Nc1ccccn1)NCc1ccccc1`, the “hERG current change (%, negative = inhibition) at 1uM” value is 12.3%.

For `O=C(CSc1nnnn1-c1cccc(Cl)c1)Nc1ccc2c(c1)CCC2`, the “hERG current change (%, negative = inhibition) at 1uM” value is 5.76%.

Take `COc1ccc(NC(=O)c2cn(C)c(=O)c3cc(OC)c(OC)cc23)c(OC)c1`: the “hERG current change (%, negative = inhibition) at 1uM” value is reported as 13%.

Turning to `Cc1cccc(OCCN2C(=O)c3ccccc3C2=O)c1`, the “hERG current change (%, negative = inhibition) at 1uM” value amounted to 17.7%.
